# Laboratory results taken from article PMC10726135.
# The list shows a part of the results. At the low end of the ranking, values are background and their order means little. Measured with an extract: partners may take part in the binding.
# Target: T1, HNF4alpha2 (COS-7 nuclear extract) (UniProt P41235)
# T1 sequence: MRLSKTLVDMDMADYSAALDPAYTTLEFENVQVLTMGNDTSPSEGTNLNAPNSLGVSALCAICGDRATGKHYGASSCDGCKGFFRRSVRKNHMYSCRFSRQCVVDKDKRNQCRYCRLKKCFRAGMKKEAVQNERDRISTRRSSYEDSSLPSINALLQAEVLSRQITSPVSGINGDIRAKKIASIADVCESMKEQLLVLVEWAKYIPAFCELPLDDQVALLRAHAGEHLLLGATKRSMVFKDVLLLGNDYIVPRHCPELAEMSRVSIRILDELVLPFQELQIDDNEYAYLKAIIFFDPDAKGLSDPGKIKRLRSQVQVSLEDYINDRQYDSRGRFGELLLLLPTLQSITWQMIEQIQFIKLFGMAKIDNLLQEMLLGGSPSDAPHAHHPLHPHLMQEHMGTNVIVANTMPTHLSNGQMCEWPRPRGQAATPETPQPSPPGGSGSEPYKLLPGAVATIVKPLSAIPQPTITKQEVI
# Experiment: protein-binding microarray
# Settings: COS-7 nuclear extract on double-stranded Agilent 4x180k PBM; binding buffer, salt, pH and temperature not given; high values mean tight binding; double strand, one strand shown; sequences stand for … in …GCCTAGGGAGATTAGAGTATCGGTCGA
row,Sequence,binding signal (log2 normalized intensity)
1,TGGTAAAGATGACCAGCGTGTGGCGCCATT,-1.04
2,AGTGTACGTTGTACCCCACAGGTATTCTTT,2.03
3,TGCTGATAAAGGGTGTGAGAGAGAAGGCAA,-1.01
4,GAGTTACACTATCGGCTTCCCTGGTCCTCA,-1.09
5,CCTGCCTTTGTATAAGCCGTGCAAAGTTCA,3.81
6,CAAAGATAAGAAAAAAACAGCACAAAAATG,-1.12
7,CACCACAAGTTTGAACTGCACAGGCCTACT,-1.19
8,GCAAGATAATGTCAAAAATCTTAAGGAGGA,-0.545
9,TCTCTAGAATGAGCCTCTTCTTTAATAAGA,-1.13
10,AGTTTATCGAAAATCCCCCACCATTGTTAT,3.85
11,CAACAGGGTTAAAAGCAAACCAAAAAGTTG,-1.25
12,GCTACTGCTCCACCTTTGAAATCTCAAATA,-0.957
13,AAAAATGATGCTACTGGAGGTATAATATCT,0.279
14,ACTCCCTTAAATAATGCATACGCTAGCTTT,-1.1
15,AGAGTTTTAAAGTATCCCATCCATTTCCCA,1.45
16,GGAGGACCTCTGGATTACATACCCAAGTTC,-1.01
17,CACTGTCTCAGGGTCCACATTCCAGGAATA,1.77
18,TAGACCAGCCAATTCTACTGGAAGTAGGTA,0.854
19,ATAACACCTATGTGCAAAATACCTGGAAGT,-0.17
20,GATCAAAAACTGCCTAAATCCAAAGGGCAT,1.31
21,TTCAATATACAGTTGGTATTTAGTAAATAT,1.88
22,GGCAAAGGTCACAGCATTAGAGCAACCAGA,-1.08
23,ACTCAATGCTGCTGATGCAGAGGGTGCAAA,0.179
24,TTTTTTTTTTGAGATGGAATCTTGCCCTGT,3.18
25,TCATAAAACACCCACCTTGTTATCTTGTCT,1.64

row,Sequence,binding signal (log2 normalized intensity)
1,GCATGAGACTGAAATTCCTTGACCCTGAAA,1.39
2,CTCACACACACACACACACAGCTTGGAGCT,-1.13
3,GAGAATTAAACTGCCGCGCCACTGCGTCCA,-1
4,TTTGACATCACCTAACTTGTGGCTGGGTGA,0.943
5,CAGCTAGTGAGATACGGCCTGGACTCCAAG,0.767
6,GCTCACTCCTGGGACAAGGACTTTGGCTAG,2.6
7,GTCTAAAGTTCAGTGAGATTAGGAAGTGTG,1.75
8,TTTGGAAAATATTGCCAATATCTGCCATCT,-1.17
9,CTGAACCTTGGATCTCCTGCACCTGAACTT,1.96
10,TCTTAGCCATGTTCTCTAGAAACAGAGCCC,-1.08
11,CAGCACTCTCTGATTACACAGGCCTTATAG,-0.632
12,CTTAGATAGCAGTGTGAGTGTCAGAGGCTA,-0.858
13,AGAATCTTATCAGCAGATAAGGGCAGAGAG,-0.591
14,CCCAACAGACTTTCCCCCTATTTCCCTCTG,2.54
15,TTTGTTGTTGAGCAAATCATAGTGTTTCTT,0.883
16,ATTAACACAGCTCTAGAGGGCTGCTTATCT,-1.16
17,GAAGAATCTGTATCAGCCTGTGACAAAGTC,-0.808
18,GGACGCTTTAGAGAAACGCACTCGCCTCTC,-1.11
19,AAAAGAAAGCCCATTAAATCTTCCCTCCTG,-1.14
20,TATCATCTTCCCTGTTCAAACTAAACCTAA,-1.18
21,TTGATCAGCATTCAAATGAGGGCAGGATGC,-0.174
22,ATCACAAACTTTAGTAGTCCAAAGCTCAGA,0.282
23,CTATCTGCTGGGGGCTGGGCCCCACAGTGC,-1.1
24,GGCCCCAGGAGACCCCGCGAGACGGGTGCG,1.17
25,CTGCCCTTCGTCCTGAGCAGTCCCTTCCCC,2.55

row,Sequence,binding signal (log2 normalized intensity)
1,GACGCGCCGGCGCAGCCGCGCTCCGCCCCG,-1.05
2,TAGGGGTGGGATGGGGAGCAGTGGGAGGTG,-1.11
3,CCCTGGGGAAGGCAGGTCTCTCTCATTCAC,-0.807
4,TGGATACAGGGTAGGGCCAACCAACCCAAC,-1.15
5,TGAAGGTAGGACAGGGTGATCAGAGATCTA,-1.12
6,TCAAGTGATCGAAGGTCAACTTATCAGCAT,3.19
7,GGGACAAGCACATTAGGAGGAAAAAGAATG,-1.13
8,ATAAATAAAGCCCTGGGGTAATAAAAGTGT,-0.0726
9,GGCCGCTCTCCCTCCAGGCCCCAGCCACGC,2.21
10,TTATGGCCACTGTGTGTGTGTGTGTGTCTG,2.84
11,AGTCCAAGTTCCACATCAAGCACATTCCAG,-1.06
12,TCAGGAGAGCATCTGAGTGTCAAAAACAAT,-0.512
13,GGTGGGCTGCTCCCAGTGCCCTTTGAACTC,8.32
14,GCCCTTAAAGGCTTTTGCAAGAAAACCAGC,-1.14
15,TGGGAATGGAGAGAGAGAGAATAGCTCAGG,-1.26
16,TTACAAGGAGATATGCACTTGCCCTTTGGT,3.77
17,TGGCAAAGCTATTCACTTTTTGGCCTTTGG,3.25
18,GTGCCCTCATAAGAGACTTTGCCCTTTTTT,5.63
19,GGAGAGGTGGAGAAAGGCAGAAGGTTCCAG,-0.945
20,AAGATGACCAGCGTGTGGCGCCATTTCAGG,-1.12
21,CTTGAGGACAGGCCAAATCCAGTAAGGCAC,-1.09
22,TCAGGGCCACGGGAAAACCTGACTGCGCTC,-1.15
23,TGCATGCAAAAAGGCTGACCTTTGACTCTC,7.57
